# According to the supplement of paper PMC3334620:
# Over roughly 33,000 sequences, “E-score (-0.5 to 0.5)” has its median near -0.035; the highest 2% begin near 0.35. The list shows a part of the results.
# Target: T1, Pdr3 (UniProt P33200)
# T1 sequence: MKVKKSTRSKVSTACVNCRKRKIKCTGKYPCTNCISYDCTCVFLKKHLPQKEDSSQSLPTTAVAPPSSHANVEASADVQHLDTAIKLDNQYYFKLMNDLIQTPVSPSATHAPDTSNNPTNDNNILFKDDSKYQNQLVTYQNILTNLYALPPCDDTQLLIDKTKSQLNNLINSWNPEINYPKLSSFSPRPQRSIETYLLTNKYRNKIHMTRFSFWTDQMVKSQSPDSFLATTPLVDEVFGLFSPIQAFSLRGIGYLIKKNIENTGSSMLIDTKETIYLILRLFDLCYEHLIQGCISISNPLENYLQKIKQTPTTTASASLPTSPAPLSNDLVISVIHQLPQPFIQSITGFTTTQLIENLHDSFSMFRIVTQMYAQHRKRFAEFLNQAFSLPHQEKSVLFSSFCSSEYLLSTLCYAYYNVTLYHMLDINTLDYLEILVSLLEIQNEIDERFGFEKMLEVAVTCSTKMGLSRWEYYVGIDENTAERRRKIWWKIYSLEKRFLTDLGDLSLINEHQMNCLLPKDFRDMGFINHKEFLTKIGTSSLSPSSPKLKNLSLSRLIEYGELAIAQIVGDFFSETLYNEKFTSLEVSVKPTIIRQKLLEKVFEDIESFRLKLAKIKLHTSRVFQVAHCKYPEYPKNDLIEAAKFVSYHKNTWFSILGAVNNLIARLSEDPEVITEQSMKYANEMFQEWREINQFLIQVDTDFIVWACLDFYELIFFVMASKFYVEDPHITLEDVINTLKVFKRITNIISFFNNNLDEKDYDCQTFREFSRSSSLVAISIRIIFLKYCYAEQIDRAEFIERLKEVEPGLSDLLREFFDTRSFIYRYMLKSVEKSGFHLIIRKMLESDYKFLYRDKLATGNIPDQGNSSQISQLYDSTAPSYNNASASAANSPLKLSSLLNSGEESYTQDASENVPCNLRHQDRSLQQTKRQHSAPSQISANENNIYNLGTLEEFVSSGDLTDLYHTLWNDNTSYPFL
# Assay: PBM E-score (8-mer binding enrichment) (E-score (-0.5 to 0.5)); higher = stronger / more preferred TF binding; most listed sequences are background and not binding sites
# Settings: protein concentration: 200 nM; construct: GST-full length
# Protocol: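 Universal 'all 10-mer' protein binding microarrays (Agilent AMADID 015681) probed with GST-tagged S. cerevisiae TFs (full-length or DBD) made by in vitro transcription/translation (PURExpress), about 100-200 nM. Bound TF was detected with fluorescent anti-GST. Each ungapped 8-mer (which stands for itself and its reverse complement) is scored by the PBM enrichment score (E-score), a modified Wilcoxon-Mann-Whitney statistic from -0.5 to +0.5, computed with the Universal PBM Analysis Suite. Scale: above 0.35 generally sequence-specific binding.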
row,Sequence,PBM E-score
1,ATACCTCC,-0.0487
2,ACGCTCCA,-0.0863
3,TCTCCGAA,0.257
4,AACATACC,-0.0381
5,AGATTGAA,-0.0668
6,TCATACCA,0.0464
7,ACAGGATA,-0.177
8,GCTGACAA,0.0279
9,AAAATCCC,0.0702
10,CTTGCAAC,-0.15
11,ATACAGAG,-0.223
12,GCCGCAAC,0.0476
13,AGTACGTG,-0.0324
14,ATCAACGC,-0.15
15,GGTGCCCA,-0.219
16,CGCGGTCA,0.307
17,ACTTACAG,-0.259
18,ACATCGGG,-0.0215
19,GAACCTAC,-0.0296
20,ACTTAGTA,0.0349
21,AAGCCTGA,-0.284
22,GTACTAGA,0.0176
23,AATACGAT,-0.153
24,CCGATGCA,0.143
25,CCGGATCA,0.389

row,Sequence,PBM E-score
1,GTTGGCGA,0.0642
2,CAGTCTCG,-0.203
3,ATACAGGG,0.102
4,CTCTACTA,-0.182
5,ATACGCGA,-0.0933
6,CCAGCTAG,-0.33
7,AGAAGAAG,0.0175
8,CTCAGGCA,0.0505
9,CCTGTGCC,-0.0891
10,GATAGCGA,-0.08
11,ATACCGCA,0.0658
12,CTGGTCCA,-0.064
13,CAGGCGGC,0.0461
14,CATATCGA,0.0824
15,GGTTGGGA,-0.0649
16,CTCAACAC,-0.035
17,CGGCTTGC,0.197
18,AACACAGC,0.125
19,ATCTATAC,-0.0121
20,CCACTCCC,0.152
21,ACCGTTGA,-0.0585
22,CTGACCCC,-0.131
23,ACACTTAT,-0.0908
24,ACCGTACT,0.00717
25,AATCCTCT,-0.246

row,Sequence,PBM E-score
1,CACTTCAG,-0.0576
2,GGAAGGAA,0.182
3,AGTCCCTC,-0.109
4,ACTCCGTC,0.206
5,GCCCGAAC,0.255
6,AGCTAGCC,-0.148
7,CCTCAACC,-0.118
8,CTCTCGGC,0.118
9,AAGTGGGA,0.12
10,GGTAGTAC,-0.0784
11,CTCCCGCA,0.145
12,GACATCAA,0.106
13,ACCCACCC,0.34
14,AGAAAGCA,0.0552
15,TGAAAACA,-0.033
16,AACACAAG,-0.165
17,ACTTGTGA,-0.124
18,AAGGTATG,-0.0602
19,ATTCGAGA,-0.0455
20,CGAAAACC,-0.0499
21,AATATTAT,0.217
22,CGTTAACC,-0.0928
23,GACTGAAA,-0.0895
24,AGCCATCA,-0.0552
25,GAGAAAGA,0.0611

row,Sequence,PBM E-score
1,TCTAGGAA,-0.25
2,AACCATAC,-0.119
3,TGACTACA,-0.262
4,CAACTGCG,-0.174
5,CTCCCTCC,0.0444
6,GAGCAAAA,-0.17
7,CACTACGC,-0.218
8,ATCCAGGA,-0.0717
9,AGATACTA,0.0852
10,AGGCCCTA,-0.122
11,GAACAGCC,-0.102
12,ACATTCGG,0.196
13,CACTTGGA,-0.00267
14,AGAGTCAC,-0.266
15,ACTAGTAA,-0.135
16,CAGGTAGG,-0.141
17,AGCATATC,0.0261
18,GCGTTTGA,-0.15
19,AATATTGT,0.0313
20,AATCTAAC,-0.0674
21,TAACCATA,-0.24
22,ACTACGTA,-0.0178
23,ACACCATA,-0.0235
24,CCCATCTA,-0.0481
25,ATGATCCA,-0.124

row,Sequence,PBM E-score
1,GTAGATGA,0.00924
2,TGGATCCA,0.096
3,GGCGAAAC,0.0538
4,GATCCCAC,0.105
5,ATTTGCGC,0.0546
6,AATCTTAG,-0.115
7,AGTGTTAT,0.0195
8,AAAGAGGG,-0.282
9,CTGCCATA,0.103
10,AGCGCTAC,-0.215
11,CATTCGTC,0.0902
12,GGTTGGCA,-0.184
13,CTAAGTCA,-0.175
14,CTACGTGA,-0.124
15,CCCAACTA,-0.0324
16,CCCGAGAG,0.0205
17,AATTCGCC,0.0278
18,ATAGCTGC,0.0774
19,GCGGGCAA,0.176
20,GAGGGGCC,-0.179
21,CTCCGCCA,0.165
22,CGATCCCG,0.361
23,TATGGTGA,-0.0424
24,GCTCAGCC,-0.183
25,GGGACCAA,0.108

row,Sequence,PBM E-score
1,CAAACTAA,0.129
2,AAGGATTC,0.0418
3,CCTTACAA,-0.0935
4,AGTAGTAG,-0.08
5,AATATACT,-0.0677
6,ACTTGCCC,-0.107
7,ATAGCCCA,0.0524
8,CCCCGCGA,0.201
9,CCCTGACA,-0.222
10,CGGAGGTC,0.29
11,TACAACGA,-0.0462
12,CAATTTGA,-0.0789
13,GAGGACAA,-0.135
14,AGCGTGGC,-0.0731
15,CTGTCGGC,0.172
16,CCAGCTGC,0.00985
17,GATTTGAC,-0.177
18,AATCTATG,-0.0262
19,ATAAGCTC,0.042
20,CGAAACCC,0.0963
21,ACACGCTG,-0.107
22,CATAGTTA,-0.0733
23,ACTTCGCT,-0.0552
24,AGTACTCA,-0.244
25,GTACCGGA,0.318

row,Sequence,PBM E-score
1,GGGGGTTA,-0.272
2,CCGGGATA,0.388
3,CGCCGTCC,0.115
4,CTATGTGC,-0.00314
5,CGGGCGAC,0.158
6,AGTCGTGA,-0.24
7,CCGGTCTC,0.18
8,AGCATGCG,0.00717
9,ACTAGAGA,-0.0945
10,CAAGTGTA,-0.154
11,GCGCGCAA,0.289
12,CTACTATA,0.136
13,ACAAGGAA,0.168
14,ACAATCCC,0.264
15,AAGTTGGT,-0.0146
16,GACTGGTA,0.106
17,AGCACTTG,-0.255
18,AAACGCAG,0.00726
19,AAGTTCAG,-0.098
20,CGCTGACC,0.108
21,AGTTAAGA,-0.0801
22,ACCTTCCC,0.0674
